Screen size: about 39,000 compounds; about 220 (0.56%) showed activity. Some of the results follow.
What follows are compounds tested on Escherichia coli K-12 BW25113 (assay: relative growth (OD600 normalised to plate interquartile mean) (fraction); higher = less growth inhibition, active = 0.2 or less). Details: 50 µM; LB; incubation time: overnight (16-24 h).
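Note: static incubation at 37 °C against the wild-type strain, values averaged over two biological replicates.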

Compound | relative growth
Cc1noc(C)c1NC(=O)N(C)C[C@H]1OCCCC[C@@H](C)Oc2ccc(NC(=O)CCC(F)(F)F)cc2C(=O)N([C@H](C)CO)C[C@H]1C | inactive: 1.02
C[C@@H]1CN([C@@H](C)CO)C(=O)c2cc(NC(=O)Nc3ccccc3)ccc2O[C@@H]1CN(C)C(=O)Nc1ccc(C(F)(F)F)cc1 | inactive: 0.978
C[C@@H]1CN([C@@H](C)CO)C(=O)c2cc(C#Cc3ccccn3)cnc2O[C@@H]1CN(C)C(=O)c1cnccn1 | inactive: 0.987
COc1ccccc1S(=O)(=O)N(C)C[C@H]1OCc2cn(nn2)CCCC(=O)N([C@H](C)CO)C[C@@H]1C | inactive: 0.964
CO[C@@H]1CN(C)C(=O)c2cc(NC(=O)CC(F)(F)F)ccc2OC[C@H](C)N(S(=O)(=O)c2cn(C)cn2)C[C@H]1C | inactive: 0.996
CC(C)CC#Cc1cnc2c(c1)C(=O)N([C@@H](C)CO)C[C@@H](C)[C@H](CN(C)C(=O)CCN1CCCCC1)O2 | inactive: 0.987
COc1ccc([C@H]([C@H](Cc2ccccc2)OC(C)=O)N(CC#C[C@@H](O[Si](c2ccccc2)(c2ccccc2)C(C)(C)C)c2ccccc2)[C@@H](Cc2ccccc2)C(OC)OC)cc1 | inactive: 1.04
COCCNC(=O)C[C@H]1CC[C@H]2[C@@H](COC[C@H](O)CN2C(=O)Nc2ccc3c(c2)OCO3)O1 | inactive: 0.999
C[C@@H]1CN([C@@H](C)CO)C(=O)c2cc(NS(=O)(=O)c3cccs3)ccc2O[C@@H](C)CCCCO[C@H]1CN(C)S(=O)(=O)c1ccc(Cl)cc1 | inactive: 0.987
C[C@@H]1CN([C@@H](C)CO)C(=O)c2ccccc2-c2ccccc2CO[C@@H]1CN(C)Cc1ccc(-c2ccccc2)cc1 | inactive: 1
C[C@@H]1CN([C@@H](C)CO)C(=O)c2cc(NS(=O)(=O)c3cccs3)ccc2O[C@@H](C)CCCCO[C@@H]1CN(C)Cc1ccccc1 | inactive: 0.977
CC1(C)SC2C(NC(=O)C(NC(=O)N3CCNC3=O)c3ccccc3)C(=O)N2C1C(=O)[O-].[Na+] (centres undefined) | inactive: 0.263
C[C@@H]1CN([C@H](C)CO)C(=O)c2cccc(NC(=O)NC3CCCCC3)c2O[C@H]1CN(C)Cc1ccc(Cl)c(Cl)c1 | inactive: 0.96
O=C1c2ccccc2[C@@]2(Cc3ccccc3N(C3CC3)C2=O)[C@H](c2ccc(CO)cc2)N1Cc1ccccc1 | inactive: 1.01
Cc1[nH]c(=O)n(C(C)(C)C)c(=O)c1C | inactive: 1
C[C@H]1CN([C@@H](C)CO)C(=O)c2cc(NC(=O)CCN3CCOCC3)ccc2O[C@H]1CN(C)Cc1ccc(C(=O)O)cc1 | inactive: 1.01
COCC(=O)N1C[C@@H](C)[C@@H](OC)CN(C)C(=O)c2cc(NC(=O)c3ccc(F)cc3)ccc2OC[C@@H]1C | inactive: 1.01
O[C@@H](CCl)CN1CC[N+]2(CC1)CC[N+]1(CCN(C[C@@H](O)CCl)CC1)CC2 | inactive: 1
CC(C)c1cc2c(cc1S(=O)(=O)O)[C@@]1(C)CCC[C@@](C)(C(=O)O)[C@@H]1CC2 | inactive: 0.998
Cc1ccc(S(=O)(=O)N(C)C[C@H]2Oc3c(NC(=O)c4cnccn4)cccc3C(=O)N([C@H](C)CO)C[C@@H]2C)cc1 | inactive: 0.975

Compound | relative growth
O=C(C[C@H]1CC[C@@H]2[C@H](COC[C@H](O)CN2C(=O)Nc2cc(Cl)cc(Cl)c2)O1)N1CCOCC1 | inactive: 0.985
COc1ccc(S(=O)(=O)N(C)C[C@H]2OCCCC[C@H](C)Oc3ccc(NC(=O)CCC(F)(F)F)cc3C(=O)N([C@@H](C)CO)C[C@@H]2C)cc1 | inactive: 0.929
C[C@@H]1CN([C@@H](C)CO)C(=O)CCCn2nncc2CO[C@H]1CN(C)S(=O)(=O)c1cccc(C#N)c1 | inactive: 0.966
COCCOC(=O)N1C(=O)[C@@]2(c3cc(C#CCCO)ccc31)[C@H](c1ccc(O)cc1)N1[C@H](c3ccccc3)[C@H](c3ccccc3)OC(=O)[C@H]1[C@@H]2C(=O)NC[C@H](O)c1ccccc1 | inactive: 1.01
C[C@@H]1CCCCO[C@H](CN(C)C(=O)Cc2ccccc2)[C@@H](C)CN([C@H](C)CO)C(=O)c2cc(NC(=O)C3CCCCC3)ccc2O1 | inactive: 0.978
C[C@@H]1CCCCO[C@@H](CN(C)C(=O)C2CCCCC2)[C@@H](C)CN([C@H](C)CO)C(=O)c2cc(NC(=O)Cc3ccccc3)ccc2O1 | inactive: 0.998
CC(C)(O)C#Cc1ccc([C@@H]2[C@H](CO)N3CCCCN(S(C)(=O)=O)C[C@@H]23)cc1 | inactive: 1.04
NCC(=O)NC1CCCCC1 | inactive: 1.01
Cc1cc(C(=O)Nc2cccc3c2O[C@H](CN(C)Cc2ccccc2)[C@@H](C)CN([C@H](C)CO)C3=O)n(C)n1 | inactive: 1
C[C@H]1CN([C@@H](C)CO)C(=O)c2cc(NC(=O)C3CC3)ccc2O[C@H]1CN(C)S(=O)(=O)c1cccs1 | inactive: 0.998
CC(=O)N[C@@H]1CC[C@@H](CCNC(=O)C2CC2)O[C@@H]1CO | inactive: 0.988
COCC(=O)N1C[C@H](C)[C@@H](OC)CN(C)C(=O)c2cc(NC(=O)Nc3ccccc3)ccc2OC[C@@H]1C | inactive: 1.03
C[C@@H]1CN([C@H](C)CO)S(=O)(=O)c2ccc(C#CC3CC3)cc2O[C@H]1CN(C)C(=O)c1cccc(F)c1 | inactive: 1.02
Cc1cnccc1CN1C[C@H](C(=O)O)CC1=O | inactive: 1.02
Cc1noc(C)c1S(=O)(=O)Nc1ccc2c(c1)C(=O)N([C@@H](C)CO)C[C@@H](C)[C@@H](CN(C)S(C)(=O)=O)O2 | inactive: 1.01
COc1ccc([Si](C)(C)[C@H]2[C@H](CCn3cc([C@H](O)c4ccccc4)nn3)O[C@@]3(C(=O)N(Cc4ccc(N5CCC5=O)cc4)c4ccccc43)[C@@H]2C)cc1 | inactive: 1.02
O=C(C[C@H]1CC[C@@H]2[C@H](COC[C@H](O)CN2C(=O)c2ccc3c(c2)OCO3)O1)NCCN1CCCCC1 | inactive: 1.01
C[C@H]1CN([C@@H](C)CO)C(=O)CCCn2cc(nn2)CO[C@H]1CN(C)S(=O)(=O)c1ccc(-n2cccn2)cc1 | inactive: 0.993
Cn1cc(C(=O)N2CC[C@H]3[C@@H]2CCN3S(C)(=O)=O)cn1 | inactive: 0.99
O=C(C[C@@H]1CC=CCC[C@H](Cc2ccc(F)cc2)C(=O)OC[C@H](Cc2c[nH]c3ccccc23)NC1=O)N[C@H](CO)Cc1ccccc1 | inactive: 1.01

Compound | relative growth
CCCc1cc(=O)[nH]c(=S)[nH]1 | inactive: 1.05
CC1(C)CC[C@]2(C(=O)O[C@@H]3OC[C@@H](O)[C@H](O)[C@H]3O)CC[C@]3(C)C(=CC[C@H]4[C@@]5(C)C[C@@H](O)[C@H](O)[C@@](C)(CO)[C@@H]5[C@H](O)C[C@]43C)[C@@H]2C1 | inactive: 0.995
C[C@H](CO)N1C[C@H](C)[C@@H](CN(C)C(=O)Nc2ccccc2)Oc2c(NC(=O)c3ccc(-c4nccs4)cc3)cccc2C1=O | inactive: 0.975
CC(C)NC(=O)Nc1ccc2c(c1)C(=O)N([C@H](C)CO)C[C@@H](C)[C@H](CN(C)C(=O)Nc1ccc3c(c1)OCO3)O2 | inactive: 0.969
NC(=O)c1c(N)c(C(N)=S)n2c1CCC2 | inactive: 1.02
C[C@H](CO)N1C[C@H](C)[C@H](CN(C)C(=O)Nc2ccc3c(c2)OCO3)Oc2ccc(NC(=O)CCN3CCOCC3)cc2CC1=O | inactive: 1.03
O=C(NCCCN1CCOCC1)[C@H]1[C@H](CO)[C@H]2Cn3c(cccc3=O)[C@@H]1N2C(=O)NC1CCCC1 | inactive: 1
O=C(C[C@@H]1C[C@@H]2c3cc(NC(=O)c4ccc5c(c4)OCO5)ccc3O[C@@H]2[C@H](CO)O1)NCCN1CCCCC1 | inactive: 1.02
CC(C)NC(=O)Nc1cccc2c1O[C@H](CN(C)S(=O)(=O)c1ccc(F)cc1)[C@@H](C)CN([C@@H](C)CO)C2=O | inactive: 1
C[C@@H]1CN([C@@H](C)CO)C(=O)c2cc(NC(=O)Nc3cccc4ccccc34)ccc2O[C@@H](C)CCCCO[C@H]1CN(C)S(=O)(=O)c1cccs1 | inactive: 1.06
C[C@H]1CC/C=C\[C@H]2O[C@@]34C=CCN(c5ccc(Cl)cc5)C(=O)[C@H]3N(CCCO)C(=O)[C@]4(C)[C@@H]2C(=O)O1 | inactive: 0.978
CCCN(C)C[C@@H]1OCCCC[C@H](C)Oc2ccc(NC(=O)Nc3ccc(F)cc3)cc2C(=O)N([C@H](C)CO)C[C@@H]1C | inactive: 0.997
CC(C)NC(=O)N(C)C[C@H]1Oc2ccc(NC(=O)CCC(F)(F)F)cc2C(=O)N([C@@H](C)CO)C[C@H]1C | inactive: 1.02
COc1ccc(S(=O)(=O)N(C)C[C@@H]2Oc3ccc(NC(=O)Cn4cnnn4)cc3C(=O)N([C@H](C)CO)C[C@@H]2C)cc1 | inactive: 1.03
C[C@H]1CN([C@@H](C)CO)C(=O)c2cc(NS(=O)(=O)c3cn(C)cn3)ccc2O[C@@H]1CN(C)C(=O)NC1CCCCC1 | inactive: 1
CO[C@H]1/C=C\C=C(/C)C(=O)NC2=CC(=O)C(NCCN(C)C)=C(C[C@@H](C)C[C@H](OC)[C@H](O)[C@@H](C)/C=C(\C)[C@@H]1OC(N)=O)C2=O | inactive: 1.01
Cc1ccccc1S(=O)(=O)N1C[C@H](O)COC[C@H]2O[C@H](CC(=O)NCCc3ccncc3)CC[C@@H]21 | inactive: 0.995
CC(=O)O[C@H]1C[C@@]2(C)[C@@H](C[C@@H](O)[C@H]3[C@@]4(C)CC[C@@H](O)[C@@H](C)[C@@H]4CC[C@@]32C)/C1=C(\CCC=C(C)C)C(=O)O | inactive: 0.97
CCSc1nc(=O)c(C)n[nH]1 | inactive: 0.962
